Measurements reported in patent US20200085917A1 (UNIVERSITY OF PITTSBURGH OF THE COMMONWEALTH SYSTEM OF …, published 2020).

Legend:
Experiment in all cases: GST pull-down, LC-MS/MS
Rdh13_IPI:IPI00229040.1 = target: T1, Rdh13_IPI:IPI00229040.1 (mouse, UniProt Q8CEE7 2-334)
T1 sequence (looked up): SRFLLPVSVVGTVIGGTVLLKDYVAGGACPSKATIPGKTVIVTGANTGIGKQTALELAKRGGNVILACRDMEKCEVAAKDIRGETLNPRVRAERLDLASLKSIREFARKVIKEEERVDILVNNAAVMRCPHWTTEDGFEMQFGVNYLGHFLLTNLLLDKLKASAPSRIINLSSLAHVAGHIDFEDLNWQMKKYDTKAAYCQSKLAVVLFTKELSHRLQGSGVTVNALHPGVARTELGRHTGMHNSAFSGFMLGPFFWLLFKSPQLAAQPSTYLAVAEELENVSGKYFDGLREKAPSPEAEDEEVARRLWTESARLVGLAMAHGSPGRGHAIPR

Hmgcl_IPI:IPI00127625.1 = target: T2, Hmgcl_IPI:IPI00127625.1 (mouse, UniProt P38060 28-325, limits assumed)
T2 sequence (looked up): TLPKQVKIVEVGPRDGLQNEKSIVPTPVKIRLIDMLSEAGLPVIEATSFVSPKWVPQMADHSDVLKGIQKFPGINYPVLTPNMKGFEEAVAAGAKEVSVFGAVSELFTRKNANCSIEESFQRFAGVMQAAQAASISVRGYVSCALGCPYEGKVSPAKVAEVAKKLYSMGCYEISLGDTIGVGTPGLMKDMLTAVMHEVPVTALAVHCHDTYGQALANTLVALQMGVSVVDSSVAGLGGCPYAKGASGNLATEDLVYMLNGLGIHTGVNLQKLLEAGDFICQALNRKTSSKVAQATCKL

[1] = target: T3, Mthfd1l_IPI:IPI00228113.5 (mouse, UniProt Q3V3R1 32-977)
T3 sequence (looked up): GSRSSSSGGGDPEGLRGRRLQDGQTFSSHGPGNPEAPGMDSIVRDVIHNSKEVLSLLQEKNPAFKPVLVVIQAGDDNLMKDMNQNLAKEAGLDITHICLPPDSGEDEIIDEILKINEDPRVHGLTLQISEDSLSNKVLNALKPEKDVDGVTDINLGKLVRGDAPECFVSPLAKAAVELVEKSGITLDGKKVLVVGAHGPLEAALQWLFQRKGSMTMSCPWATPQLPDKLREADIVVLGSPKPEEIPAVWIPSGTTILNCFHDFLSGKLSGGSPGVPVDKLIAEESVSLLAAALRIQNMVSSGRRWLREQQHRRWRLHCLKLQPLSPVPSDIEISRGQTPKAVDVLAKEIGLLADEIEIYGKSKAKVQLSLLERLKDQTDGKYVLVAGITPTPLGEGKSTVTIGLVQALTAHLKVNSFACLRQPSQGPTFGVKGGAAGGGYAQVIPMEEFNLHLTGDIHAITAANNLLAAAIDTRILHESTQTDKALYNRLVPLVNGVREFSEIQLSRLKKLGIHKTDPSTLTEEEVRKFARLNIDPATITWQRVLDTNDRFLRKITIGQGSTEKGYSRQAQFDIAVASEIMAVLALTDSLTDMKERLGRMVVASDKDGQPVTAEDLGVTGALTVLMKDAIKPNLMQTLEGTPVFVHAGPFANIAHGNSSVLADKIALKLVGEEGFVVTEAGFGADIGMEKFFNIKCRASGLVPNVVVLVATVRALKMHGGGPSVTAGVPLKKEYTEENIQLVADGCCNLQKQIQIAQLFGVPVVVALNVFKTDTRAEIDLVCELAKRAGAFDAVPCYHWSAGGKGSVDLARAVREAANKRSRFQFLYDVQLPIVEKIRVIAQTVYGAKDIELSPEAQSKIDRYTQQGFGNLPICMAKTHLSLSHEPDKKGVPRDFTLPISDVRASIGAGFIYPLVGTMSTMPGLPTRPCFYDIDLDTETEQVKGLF

[2] = target: T4, Slc6a11_IPI:IPI00136867.1 (mouse, UniProt P31650 1-627)
T4 sequence (looked up): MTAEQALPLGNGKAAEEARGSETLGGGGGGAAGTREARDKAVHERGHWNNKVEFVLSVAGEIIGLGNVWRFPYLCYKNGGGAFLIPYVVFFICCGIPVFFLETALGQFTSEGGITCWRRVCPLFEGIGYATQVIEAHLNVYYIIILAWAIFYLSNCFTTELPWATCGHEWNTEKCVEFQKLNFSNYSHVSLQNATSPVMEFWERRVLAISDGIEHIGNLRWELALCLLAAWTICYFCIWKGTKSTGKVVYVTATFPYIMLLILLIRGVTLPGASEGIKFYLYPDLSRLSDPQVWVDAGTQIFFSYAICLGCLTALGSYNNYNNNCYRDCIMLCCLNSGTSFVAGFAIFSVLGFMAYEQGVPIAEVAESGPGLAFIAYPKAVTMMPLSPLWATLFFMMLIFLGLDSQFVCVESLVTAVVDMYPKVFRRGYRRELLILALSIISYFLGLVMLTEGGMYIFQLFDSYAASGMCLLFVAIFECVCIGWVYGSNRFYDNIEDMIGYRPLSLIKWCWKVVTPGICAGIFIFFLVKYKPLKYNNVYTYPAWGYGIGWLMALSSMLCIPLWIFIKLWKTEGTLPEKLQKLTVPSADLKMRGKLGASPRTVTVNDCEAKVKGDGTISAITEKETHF

Measured: binding result

B1: GST alone (other)
chain: not shown
notes: Negative control of the pull-downs; also called control GST
no binding: all assays above
